Data published in the supplement of paper PMC4604168 (melanoma cell lines).
This is one part of the list. Repeats are few or missing, and single values can be far off.

Legend:
Assay in all cases: cell count relative to DMSO control; melanoma cells; higher = more viable cells
Details in all cases: library dose: low library concentration; 72 h
COLO792 = tested on: COLO792
COLO800 = tested on: COLO800
COLO829 = tested on: COLO829
G361 = tested on: G361
IPC-298 = tested on: IPC-298
IST-MEL1 = tested on: IST-MEL1
LB2518-MEL = tested on: LB2518-MEL
LOXIMVI = tested on: LOXIMVI
MEL-HO = tested on: MEL-HO
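Further: cell number obtained by counting DAPI-stained nuclei in high-throughput microscope images with image analysis software, screen run in 1,536-well plates.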

O=C(O)[C@@H]1[O][Sb](=[O])([O][Sb]2(=[O])[O][C@H]([C@H](O)CO)[C@H](O)[C@H](C(=O)O)[O]2)[O][C@H]([C@H](O)CO)[C@@H]1O (some centres not stated) [stibogluconate] + O=C(O)c1ccc(-c2c[nH]c3ncc(-c4ccccc4)cc23)cc1C1CCCC1 [GSK650394] (first compound 2 µM, partner dose 0.16 µM)
cell count (COLO792): 93.5%
cell count (COLO800): 129%
cell count (COLO829): 109%
cell count (G361): 106%
cell count (IPC-298): 104%
cell count (IST-MEL1): 102%
cell count (LB2518-MEL): 103%
cell count (LOXIMVI): 88.6%
cell count (MEL-HO): 93.7%

O=C(O)c1ccc2c(c1)nc(Nc1cccc(Cl)c1)c1ccncc12 + Cc1cc(N2CCOCC2)cc2[nH]c(-c3c(NC[C@@H](O)c4cccc(Cl)c4)cc[nH]c3=O)nc12 [BMS536924] (first compound 0.4 µM, partner dose 0.2 µM)
cell count (COLO792): 87%
cell count (COLO800): 61.9%
cell count (COLO829): 106%
cell count (G361): 86.5%
cell count (IPC-298): 93.1%
cell count (IST-MEL1): 108%
cell count (LB2518-MEL): 83%
cell count (LOXIMVI): 54.2%
cell count (MEL-HO): 98.4%

O=C(O)[C@@H]1[O][Sb](=[O])([O][Sb]2(=[O])[O][C@H]([C@H](O)CO)[C@H](O)[C@H](C(=O)O)[O]2)[O][C@H]([C@H](O)CO)[C@@H]1O (some centres not stated) [stibogluconate] + Oc1nc(-c2ccc(C(F)(F)F)cc2)nc2c1CSCC2 [XAV939] (first compound 2 µM, partner dose 2 µM)
cell count (COLO792): 70.2%
cell count (COLO800): 93.9%
cell count (COLO829): 121%
cell count (G361): 76.2%
cell count (IPC-298): 103%
cell count (IST-MEL1): 105%
cell count (LB2518-MEL): 103%
cell count (LOXIMVI): 117%
cell count (MEL-HO): 94.1%

O=C(Nc1cc(C(F)(F)F)cc(C(F)(F)F)c1)c1cc(Cl)ccc1O + COc1cc(N2CCC(N3CCN(C)CC3)CC2)ccc1Nc1ncc(Cl)c(Nc2ccccc2S(=O)(=O)C(C)C)n1 [NVP-TAE684] (first compound 0.016 µM, partner dose 0.08 µM)
cell count (COLO792): 102%
cell count (COLO800): 74.9%
cell count (COLO829): 86.4%
cell count (G361): 90.9%
cell count (IPC-298): 95%
cell count (IST-MEL1): 94.5%
cell count (LB2518-MEL): 117%
cell count (LOXIMVI): 113%
cell count (MEL-HO): 84.5%

Cn1nnc2c(C(N)=O)ncn2c1=O [temozolomide] + COc1cc(Nc2ncc(F)c(Nc3ccc4c(n3)NC(=O)C(C)(C)O4)n2)cc(OC)c1OC [Tamatinib] (first compound 2 µM, partner dose 0.4 µM)
cell count (COLO792): 62.2%
cell count (COLO800): 88.1%
cell count (COLO829): 89.8%
cell count (G361): 87%
cell count (IPC-298): 78.7%
cell count (IST-MEL1): 89.6%
cell count (LB2518-MEL): 80.9%
cell count (LOXIMVI): 64.2%
cell count (MEL-HO): 93.9%

O=C(Nc1cc(C(F)(F)F)cc(C(F)(F)F)c1)c1cc(Cl)ccc1O + COc1ccc(-c2ccc3c(N4CCOCC4)nc(N4C[C@@H](C)O[C@@H](C)C4)nc3n2)cc1CO [KU0063794] (first compound 0.016 µM, partner dose 0.02 µM)
cell count (COLO792): 91.5%
cell count (COLO800): 90.4%
cell count (COLO829): 100%
cell count (G361): 99.9%
cell count (IPC-298): 93.4%
cell count (IST-MEL1): 99.5%
cell count (LB2518-MEL): 103%
cell count (LOXIMVI): 85.6%
cell count (MEL-HO): 97.4%

O=C(Nc1cc(C(F)(F)F)cc(C(F)(F)F)c1)c1cc(Cl)ccc1O + Oc1cc(-c2nc(-c3ccccc3)[nH]c2-c2ccncc2)ccc1Cl [L779450] (first compound 0.016 µM, partner dose 0.2 µM)
cell count (COLO792): 115%
cell count (COLO800): 134%
cell count (COLO829): 104%
cell count (G361): 91.5%
cell count (IPC-298): 86.8%
cell count (IST-MEL1): 100%
cell count (LB2518-MEL): 85.5%
cell count (LOXIMVI): 84.4%
cell count (MEL-HO): 96.7%

O=C(O)[C@@H]1[O][Sb](=[O])([O][Sb]2(=[O])[O][C@H]([C@H](O)CO)[C@H](O)[C@H](C(=O)O)[O]2)[O][C@H]([C@H](O)CO)[C@@H]1O (some centres not stated) [stibogluconate] + O=c1cc(-c2cccc3c2Sc2ccccc2S3)oc(N2CCOCC2)c1 [KU55933] (first compound 2 µM, partner dose 1 µM)
cell count (COLO792): 95.9%
cell count (COLO800): 76.4%
cell count (COLO829): 119%
cell count (G361): 96.9%
cell count (IPC-298): 99%
cell count (IST-MEL1): 103%
cell count (LB2518-MEL): 104%
cell count (LOXIMVI): 104%
cell count (MEL-HO): 101%

O=C(O)c1ccc2c(c1)nc(Nc1cccc(Cl)c1)c1ccncc12 + O=C(Nc1cccc(Cl)c1)Nc1ncc(CCNc2ncnc3ccsc23)s1 [SNS314] (first compound 0.4 µM, partner dose 0.0008 µM)
cell count (COLO792): 91.8%
cell count (COLO800): 85.5%
cell count (COLO829): 78.8%
cell count (G361): 83.4%
cell count (IPC-298): 98.4%
cell count (IST-MEL1): 104%
cell count (LB2518-MEL): 116%
cell count (LOXIMVI): 74.2%
cell count (MEL-HO): 92.1%

Cc1cc(N2CCOCC2)cc2[nH]c(-c3c(NC[C@@H](O)c4cccc(Cl)c4)cc[nH]c3=O)nc12 + COc1cc2c(Oc3ccc4[nH]c(C)cc4c3F)ncnc2cc1OCCCN1CCCC1 [cediranib] (first compound 0.2 µM, partner dose 0.4 µM)
cell count (COLO792): 72.3%
cell count (COLO800): 54.3%
cell count (COLO829): 104%
cell count (G361): 83.3%
cell count (IPC-298): 89.9%
cell count (IST-MEL1): 105%
cell count (LB2518-MEL): 96%
cell count (LOXIMVI): 114%
cell count (MEL-HO): 102%

O=C(O)c1ccc2c(c1)nc(Nc1cccc(Cl)c1)c1ccncc12 + C[C@@H]1CCN(C(=O)CC#N)C[C@@H]1N(C)c1ncnc2[nH]ccc12 [CP690550] (first compound 0.4 µM, partner dose 1 µM)
cell count (COLO792): 105%
cell count (COLO800): 63.4%
cell count (COLO829): 95.9%
cell count (G361): 89%
cell count (IPC-298): 97.2%
cell count (IST-MEL1): 112%
cell count (LB2518-MEL): 95%
cell count (LOXIMVI): 78.2%
cell count (MEL-HO): 94.5%

Cc1cc(N2CCOCC2)cc2[nH]c(-c3c(NC[C@@H](O)c4cccc(Cl)c4)cc[nH]c3=O)nc12 + NCC(=O)Nc1ccc(-n2nc(C(F)(F)F)cc2-c2ccc3c(ccc4ccccc43)c2)cc1 [OSU03012] (first compound 0.2 µM, partner dose 1 µM)
cell count (COLO792): 68.2%
cell count (COLO800): 50.9%
cell count (COLO829): 77.4%
cell count (G361): 88.5%
cell count (IPC-298): 83.4%
cell count (IST-MEL1): 85.8%
cell count (LB2518-MEL): 89.2%
cell count (LOXIMVI): 98.5%
cell count (MEL-HO): 95.9%

O=C(Nc1cc(C(F)(F)F)cc(C(F)(F)F)c1)c1cc(Cl)ccc1O + O=C(O)C(=O)Nc1sc2c(c1C(=O)O)CCNC2 [TCS401] (first compound 0.016 µM, partner dose 1.66667 µM)
cell count (COLO792): 103%
cell count (COLO800): 113%
cell count (COLO829): 92.7%
cell count (G361): 98%
cell count (IPC-298): 98.9%
cell count (IST-MEL1): 96.7%
cell count (LB2518-MEL): 95.6%
cell count (LOXIMVI): 156%
cell count (MEL-HO): 99.4%

O=C(O)c1ccc2c(c1)nc(Nc1cccc(Cl)c1)c1ccncc12 + COc1cc(N2CCC(N3CCN(C)CC3)CC2)ccc1Nc1ncc(Cl)c(Nc2ccccc2S(=O)(=O)C(C)C)n1 [NVP-TAE684] (first compound 0.4 µM, partner dose 0.08 µM)
cell count (COLO792): 86.9%
cell count (COLO800): 112%
cell count (COLO829): 94.9%
cell count (G361): 85.4%
cell count (IPC-298): 96.5%
cell count (IST-MEL1): 108%
cell count (LB2518-MEL): 134%
cell count (LOXIMVI): 75.6%
cell count (MEL-HO): 90.9%

O=C(Nc1cc(C(F)(F)F)cc(C(F)(F)F)c1)c1cc(Cl)ccc1O + CCc1ccc(CCOc2ccc(CC3SC(=O)NC3=O)cc2)nc1 [pioglitazone] (first compound 0.016 µM, partner dose 2 µM)
cell count (COLO792): 96.7%
cell count (COLO800): 121%
cell count (COLO829): 99.9%
cell count (G361): 103%
cell count (IPC-298): 99.5%
cell count (IST-MEL1): 93%
cell count (LB2518-MEL): 97.8%
cell count (LOXIMVI): 106%
cell count (MEL-HO): 95.4%

O=C(Nc1cc(C(F)(F)F)cc(C(F)(F)F)c1)c1cc(Cl)ccc1O + Cc1cc(N2CCOCC2)cc2[nH]c(-c3c(NC[C@@H](O)c4cccc(Cl)c4)cc[nH]c3=O)nc12 [BMS536924] (first compound 0.016 µM, partner dose 0.2 µM)
cell count (COLO792): 89.2%
cell count (COLO800): 59.7%
cell count (COLO829): 85.5%
cell count (G361): 95.4%
cell count (IPC-298): 93.1%
cell count (IST-MEL1): 95.5%
cell count (LB2518-MEL): 82.6%
cell count (LOXIMVI): 84.2%
cell count (MEL-HO): 106%

O=C(O)c1ccc2c(c1)nc(Nc1cccc(Cl)c1)c1ccncc12 + CCc1ccc(CCOc2ccc(CC3SC(=O)NC3=O)cc2)nc1 [pioglitazone] (first compound 0.4 µM, partner dose 2 µM)
cell count (COLO792): 108%
cell count (COLO800): 89.1%
cell count (COLO829): 86.3%
cell count (G361): 101%
cell count (IPC-298): 103%
cell count (IST-MEL1): 102%
cell count (LB2518-MEL): 112%
cell count (LOXIMVI): 74.4%
cell count (MEL-HO): 101%

O=C(O)c1ccc2c(c1)nc(Nc1cccc(Cl)c1)c1ccncc12 + N#Cc1c(O)c2c(-c3ccc(-c4ccccc4O)cc3)csc2[nH]c1=O [A769662] (first compound 0.4 µM, partner dose 2 µM)
cell count (COLO792): 97.5%
cell count (COLO800): 118%
cell count (COLO829): 76.3%
cell count (G361): 91.5%
cell count (IPC-298): 105%
cell count (IST-MEL1): 97.2%
cell count (LB2518-MEL): 110%
cell count (LOXIMVI): 83.5%
cell count (MEL-HO): 92.3%
